In the supplement of paper PMC10126150:
Values marked as one replicate rest on one cluster of the flow cell; about a third of the high ones do not repeat.

System: ATP
Assay: switch fluorescence ratio, 500 uM ATP over buffer (Cy3 cluster intensity, sum of 5 cycles each) (fold (ratio)); higher = stronger signal-on switching upon ATP binding; sequences stand for … in TCGTCGGCAGCGTCAGATGTGTATAAGAGACAGTTTTTTTTTTTTTTTTTTTTTTTTT…TC
Conditions: aptamer strand: ATP DNA aptamer (quencher-CACCTGGGGGAGTATTGCGGAGGAAGG + anchor), 100 nM annealed; ATP concentration: 500 uM; one replicate
In short: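 For every switch-domain sequence, the fluorescence ratio is the mean of per-cluster values, each being summed target-cycle Cy3 intensity over summed buffer-cycle Cy3 intensity. Clusters outside 100-1000 RFU were excluded. On a modified Illumina MiSeq flow-cell, the Cy3-labelled switching-strand clusters were annealed to 100 nM quencher-labelled ATP aptamer, imaged in selection buffer and then after 15 min with 500 uM ATP at 22 °C. Five such cycles were run, with NaOH stripping and re-annealing between them.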
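Further: ATP exposure 15 min at 22 °C before imaging.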

CCATATATAT was tested, and the switch fluorescence ratio was 0.997.
CTACATGGGG was tested, and the switch fluorescence ratio was 1.
Sequence AACTACATTG has a switch fluorescence ratio of 1.03.
For GCAGTTGGGC, the switch fluorescence ratio was 1.07.
For AGTAACGACG, the switch fluorescence ratio was 0.938.
With CAAACTTCC the switch fluorescence ratio was 2.83.
Sequence ATACACTATT has a switch fluorescence ratio of 1.07.
Sequence CGGGAGCTGA has a switch fluorescence ratio of 1.
For AACATTTGTT, the switch fluorescence ratio was 1.04.
AAAGGGGCAA was tested, and the switch fluorescence ratio was 1.02.
In the case of GTGGTGAAGA, the switch fluorescence ratio is reported as 0.969.
For CGGAGCGACC, the switch fluorescence ratio was 3.11.
In the case of AAACTACTTC, the switch fluorescence ratio is reported as 1.25.
CGAGTACG showed a switch fluorescence ratio of 0.988.
Work on AGGGTTCAA yielded a switch fluorescence ratio of 1.01.
Work on TCAAGCATGC yielded a switch fluorescence ratio of 1.06.
Sequence AGGTTGCCCA has a switch fluorescence ratio of 1.03.
TCGTTTAACC gave a switch fluorescence ratio of 0.977.
AATGCTTTC gave a switch fluorescence ratio of 1.09.
In the case of TGCCCTGGCT, the switch fluorescence ratio is reported as 0.926.
GGTCCAAATC showed a switch fluorescence ratio of 1.02.
GACGACACCA showed a switch fluorescence ratio of 1.38.
Sequence GTAAGACAGG has a switch fluorescence ratio of 0.993.
In the case of GCGAAGGACA, the switch fluorescence ratio is reported as 1.
Sequence GGTTACTT has a switch fluorescence ratio of 0.989.
Sequence CGTGATCGCA has a switch fluorescence ratio of 0.983.
CGGTGACATC was tested, and the switch fluorescence ratio was 1.
In the case of TCAGGGGATA, the switch fluorescence ratio is reported as 1.
For CAGAGCCTAC, the switch fluorescence ratio was 1.35.
In the case of TTTTTGCGCA, the switch fluorescence ratio is reported as 0.968.
With TCTTAGTTGA the switch fluorescence ratio was 1.02.
In the case of CTCGCCAGTC, the switch fluorescence ratio is reported as 1.18.
With AAGGCGCCAT the switch fluorescence ratio was 0.953.
With CAGGGTCTT the switch fluorescence ratio was 1.03.
AATAGAAAT gave a switch fluorescence ratio of 1.04.
Sequence CGTTGGGCGC has a switch fluorescence ratio of 0.991.
With TGCAGGCTGG the switch fluorescence ratio was 1.01.
TCGTGTCGCT gave a switch fluorescence ratio of 0.982.
For TGAGTATTCT, the switch fluorescence ratio was 1.02.
In the case of GCCATTGAGA, the switch fluorescence ratio is reported as 1.02.
Sequence ATGCGGAACT has a switch fluorescence ratio of 0.978.
AGGCTAGCCA was tested, and the switch fluorescence ratio was 0.981.
Work on TTGTTCAAAC yielded a switch fluorescence ratio of 0.991.
TTCATGGGTG was tested, and the switch fluorescence ratio was 1.03.
Sequence AAGGCCACTG has a switch fluorescence ratio of 0.985.
Work on TGAGATCCGT yielded a switch fluorescence ratio of 1.02.
AGTGAAGGTC was tested, and the switch fluorescence ratio was 0.949.
With TTAGGTATGA the switch fluorescence ratio was 1.01.
With CACGTAGAAT the switch fluorescence ratio was 1.03.
Work on CAGAGACAGT yielded a switch fluorescence ratio of 0.961.
Work on ACTAGATTTA yielded a switch fluorescence ratio of 0.978.
For CACTGGAGCT, the switch fluorescence ratio was 1.08.
Sequence TGACTAGATC has a switch fluorescence ratio of 1.02.
Sequence CCACTGAACT has a switch fluorescence ratio of 1.18.
For ACAGTGACTA, the switch fluorescence ratio was 1.08.
For TAGTTGCTAA, the switch fluorescence ratio was 0.987.
With TCATTACGTA the switch fluorescence ratio was 1.37.
Work on CGGTAGGGCC yielded a switch fluorescence ratio of 0.973.
With AGATGGGGGC the switch fluorescence ratio was 1.02.
Sequence TCTCGTTCTT has a switch fluorescence ratio of 0.943.
Work on AAGAAGCGTA yielded a switch fluorescence ratio of 0.976.
Work on AACGGTTGG yielded a switch fluorescence ratio of 0.984.
Sequence GCGACCAAAT has a switch fluorescence ratio of 1.05.
TGTGAGCTAG was tested, and the switch fluorescence ratio was 0.995.
For GGGGGCGCG, the switch fluorescence ratio was 1.02.
With ATGAGTATTC the switch fluorescence ratio was 0.973.
Work on GGCGGGTTTA yielded a switch fluorescence ratio of 0.959.
Work on CGTTCACCGC yielded a switch fluorescence ratio of 1.18.
ATGTCGCGGA gave a switch fluorescence ratio of 0.967.
TGCTTTGTGG was tested, and the switch fluorescence ratio was 0.956.
Sequence ATTGCCTTG has a switch fluorescence ratio of 0.996.
GACACGGTGC was tested, and the switch fluorescence ratio was 1.15.
AGTAGCGTAG was tested, and the switch fluorescence ratio was 1.01.
TCAGTAGATT was tested, and the switch fluorescence ratio was 1.01.
In the case of GCGCCTTGGC, the switch fluorescence ratio is reported as 0.967.
CTAGCAGGCA was tested, and the switch fluorescence ratio was 1.01.
TGCGCGCTAC was tested, and the switch fluorescence ratio was 1.38.
CTTAGTTATG showed a switch fluorescence ratio of 0.99.
For TAGTCTTTCT, the switch fluorescence ratio was 1.11.
In the case of ACTTCCGGGT, the switch fluorescence ratio is reported as 1.11.
TCGGGGACAG gave a switch fluorescence ratio of 0.989.
For TCGTGAATTA, the switch fluorescence ratio was 1.01.
Sequence CGGGCATTTT has a switch fluorescence ratio of 1.06.
TCAATACCTA was tested, and the switch fluorescence ratio was 1.04.
Sequence CATGTTGGAA has a switch fluorescence ratio of 1.01.
